The record followed here is paper PMC12136788.

The labels stand for the following.
B1: chr22:19452774:19452775:-_ENSG00000070010_ENST00000399523|hu_hu|hu_hu_hu_mus_False|58_68 (ssRNA)
RNA: GGGAGUUCUACAGUCCGACGAUCCUUCUCAUUGUAGUUGAUAGCAAUCACAUCUCCAGUCGUCAGACAGGCAAAGUUCCUAAGUGCAUUUUCUAAUACCGCUUUAGGGUUGGUAAUAUCCAGGAAGUCUGGGCUCUGAGGCUGCAACAGAGGAUUGAGCAUCA
B2: chr17:35975056:35975057:-_ENSMUSG00000001525_ENSMUST00000001566|mus_hu|FALSE|FALSE (ssRNA)
RNA: GGGAGUUCUACAGUCCGACGAUCCCCUCAUGGUUAAAAUUUAAUUUUUUUGCUCGCCUCAAGGUAUGUAUGGGGCAAGAAAAUAAGUAAUUUUUUUUCUCCGCAGGUCGCAGGCUGGAAGGUUGGAAUGCGCCCCAGAGGCUGCAACAGAGGAUUGAGCAUCA
B3: chr7:44244176:44244177:+_ENSG00000106636_ENST00000223369|hu_mus|hu_hu_hu_mus_False|58_78 (ssRNA)
RNA: GGGAGUUCUACAGUCCGACGAUCACUGUCGCUCCGGACGUAGACAUGGCAAAGAUAGUCUUGUUCUUUGACAGAAGCUCUAGUGCCUUUCCCCGAGCGUUCCACAAUCAGUUGACUUGUAAAGGUCAUGAAUUCCUGCACACUCAACAGAGGAUUGAGCAUCA
B4: chrX:140365796:140365797:-_ENSMUSG00000031285_ENSMUST00000033642|mus_mus|motif|central (ssRNA)
RNA: GGGAGUUCUACAGUCCGACGAUCCUUCUCAUUACUUAAUGCCUGCAAGGUUCUGGUUCUGUAGAAGCUACAGUGGGCACGGUGAGUGGGACUUGGAAGUCCAUUCAUCCGUGACCCUCUCAUAUUUCUAGAUGCUUUGUCUCGCAACAGAGGAUUGAGCAUCA
B5: chr8:95500983:95500984:-_ENSG00000164944_ENST00000437199|hu_hu|hu_hu_hu_mus_True|68_108 (ssRNA)
RNA: GGGAGUUCUACAGUCCGACGAUCAGAAGGAUUUUUACGAGUAAAGGACCGUACAUGACGGCCUCUAACCACUGCCUCACUAACAAACUUUCCUCUCGAGCCUCCACUGCCGCUAUUUGUACUAGCCCAGGACGGUCCCAGGCCCAACAGAGGAUUGAGCAUCA
B6: chr3:176767854:176767855:-_ENSG00000177565_ENST00000430069|hu_hu|hu_hu_hu_mus_False|8_38 (ssRNA)
RNA: GGGAGUUCUACAGUCCGACGAUCGACAUCCUUGUUACUGGGCACGUCCUGCCCUCCUUCCCGUAUGCAGUGUCUAAGCACGAGCUGCGUAGGGCCACUGGUGCUGUUCUCACUGAGGUUCCAGAUUCUUGCUGUUGAGUCUCCCAACAGAGGAUUGAGCAUCA
B7: chr22:32879901:32879902:+_ENSG00000100225_ENST00000397426|hu_mus|hu_hu_hu_mus_False|18_38 (ssRNA)
RNA: GGGAGUUCUACAGUCCGACGAUCCUCUUCCAUACUCAUGGCAUCCUGAAUUGACUCAGCUUCAACAUUUUGACUAGGCCCUUCCAUACUGUCAUCAUUCCAAACACCAAAUGGGGUUGCCUGUCCUUGGGAUGAAUCAGUCCCCAACAGAGGAUUGAGCAUCA
B8: chr2:155843326:155843327:+_ENSMUSG00000005881_ENSMUST00000006035|mus_mus|FALSE|FALSE (ssRNA)
RNA: GGGAGUUCUACAGUCCGACGAUCCUGGUCACCCAGGAGCCCAUUGGCAACCUUCUCGUGCCUGGUCACGGAGAACUGGUUAGUCCUCAGCACCUCCCCGUCCACCUUCAUGUACACUGUGGGCACCACCUUCACAAAGUACUGCAACAGAGGAUUGAGCAUCA
B9: chr1:17152557:17152558:+_ENSMUSG00000025777_ENSMUST00000026879|mus_hu|FALSE|FALSE (ssRNA)
RNA: GGGAGUUCUACAGUCCGACGAUCAUACCCACUACCCAGCCAAUACCUAGACAUGCUAGUGAUUAGCUGGGACAUUCACCUAAAUGCCACUUAUGUGUAUGAAGAGGGCUACAGAUGCCACCCUUUCUACCUCCCACUGACUGGCAACAGAGGAUUGAGCAUCA
B10: chr12:69233606:69233607:+_ENSG00000135679_ENST00000462284|hu_mus|FALSE|FALSE (ssRNA)
RNA: GGGAGUUCUACAGUCCGACGAUCCUAAUUUGGGGGUCAUAUAGUUAGAAAUAUAAAAUUCUAUUUUUGUGAGCAGGUCAGCUAGUUGAAGUAAGUUAGCACAAUCAUUUGGAUUGGCUGUCUGCACACUGGGCAGGGCUUGUUCAACAGAGGAUUGAGCAUCA
B11: chr3:135125919:135125920:+_ENSMUSG00000078578_ENSMUST00000106291|mus_hu|FALSE|FALSE (ssRNA)
RNA: GGGAGUUCUACAGUCCGACGAUCCUCUGGCACUAGGGGGUCAUCUGGGUUUGGAUCACAUAGCAGUGAACAAAUGGAUAAAAGAACUUUAGAAAUUGUUAAAGCAGGCGACCACUGUGAUCUUAGAAUAUCGAGACAAAUGCUCAACAGAGGAUUGAGCAUCA
B12: chr16:17389515:17389516:-_ENSMUSG00000041720_ENSMUST00000036161|mus_mus|motif|central (ssRNA)
RNA: GGGAGUUCUACAGUCCGACGAUCUCAGAUUCAAUGAGAAAAAUGCCCAAUGCAAUCACUGCAUCUCUCCGUCUUUCAUCGGGUUGGAAGAUUCCAUGAAAAUCUACUGGGCACAUGCAAAGCAGCUUUUGAACCUGAGACAGGCAACAGAGGAUUGAGCAUCA
B13: chr10:1038518:1038519:+_ENSG00000107937_ENST00000545048|hu_hu|hu_hu_hu_mus_False|1_1 (ssRNA)
RNA: GGGAGUUCUACAGUCCGACGAUCCAGUCUGUCAUGGUAAUUCUGUUGAGUAAAUUUGACUUUUCUCAUAUAAAAAUGUCGAAUCCGAUGAAUUUGAUAAUGUUUAUGAAUAACCGUUGGAGUCUUUCGUUGAGUCUUCGACAACAACAGAGGAUUGAGCAUCA
B14: chr5:128440902:128440903:+_ENSG00000066583_ENST00000173527|hu_mus|hu_hu_hu_mus_True|48_48 (ssRNA)
RNA: GGGAGUUCUACAGUCCGACGAUCUUGAACGGUGCUGCCAAGUCCUUUGGGGUAUUGUUCCGUUAUGAUAACUGGAAUCCCUAAGAUCCGGGCCCCUUGCAACAGUCUCUGUCCCACACUAAUGAUGUCCCCAAAGUAUUUGAUCAACAGAGGAUUGAGCAUCA

The list shows a part of the results.

The target of this test is T1, UNK ZnF1-3 (human, UniProt Q9C0B0 31-174).
T1 sequence: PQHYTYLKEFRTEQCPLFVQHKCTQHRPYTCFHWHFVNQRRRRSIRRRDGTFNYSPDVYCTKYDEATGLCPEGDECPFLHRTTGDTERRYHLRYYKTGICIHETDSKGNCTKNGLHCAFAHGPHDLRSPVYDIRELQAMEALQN
Briefly: nsRBNS (natural sequence RNA bind-n-seq); RBNS binding buffer (assumed for nsRBNS): 25 mM Tris pH 7.5, 150 mM KCl, 3 mM MgCl2, 0.01% Triton X-100, 500 ug/ml BSA, 20 U/ml SUPERase-In, 4 C; UNK is unkempt and MSI1 is Musashi-1; names of the RNAs are library labels; protein concentration not given here; high values mean tight binding.
B1: the binding signal was 0.819 enrichment R. For B2 the value was 1.18 enrichment R; for B3, 0.832 enrichment R; for B4, 0.473 enrichment R.

In turn, B5 yielded a binding signal of 1.23 enrichment R. Consider B6, for which the binding signal was 0.463 enrichment R. Then B7, with 1.09 enrichment R. Molecule B8 had a binding signal of 0.997 enrichment R. In turn, B9 came in with a binding signal of 0.662 enrichment R.

For B10, the binding signal amounted to 1.3 enrichment R. In turn, B11 registered a binding signal of 1.47 enrichment R.

Consider B12, for which the binding signal was 0.629 enrichment R. In turn, B13 displayed a binding signal of 0.645 enrichment R. Then B14, with 0.704 enrichment R.
